Data from PubChem BioAssay AID493208 (National Center for Advancing Translational Sciences (NCATS), 2011).
The campaign covered roughly 44,000 compounds. About 340 (0.77%) were called active. Not shown: some 5% with an inconclusive outcome. The call rests on the fitted dose curve; in most records, active means well fitted inhibition curve with a large enough effect; inconclusive means small, poorly fitted or top-dose-only effect; inactive means flat fitted curve, though single readings scatter. The list shows a part of the results.

Test: Acumen qHTS Assay for Inhibitors of the mTORC1 Signaling Pathway in MEF (Tsc2-/-, p53-/-) Cells: Sytravon; further: nearly all actives have a fitted effect of over 50% in size;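 on activity change, negative = inhibition: plate controls were DMSO for no effect and rapamycin for full effect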
Details: phospho-rpS6 immunofluorescence/PI, 24 h; series mostly up to 38.3 µM; activity change, negative = inhibition: at the top concentration
Outline: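 Immunofluorescence of rpS6 phosphorylation in Tsc2-/-, p53-/- MEFs after 24 h compound exposure, normalized to propidium iodide signal. Activity is expressed as % positive cells, thresholded with 7.5 nM rapamycin.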
Potency means the concentration at half of the fitted maximal effect.

SMILES	activity change, negative = inhibition	Potency
COc1ccc(CCNC(=O)c2cc(-c3ccc(C)cc3)nc3n[nH]c(-c4ccc(F)cc4)c23)cc1OC	inactive: 2.98%	
O=C(CCSCc1cccc(F)c1)NCCc1ccccc1	inactive: -14.1%	
Cc1ccc(N2CC(C(=O)NCCS(=O)(=O)N3CCN(c4ccc(F)cc4)CC3)CC2=O)cc1 (stereo not drawn)	inactive: 0.828%	
COc1cc(OC)c(NC(=O)Cn2c(=O)nc(-c3ccccc3)c3ccccc32)cc1Cl	inactive: 7.62%	
COCCCNc1oc(-c2ccc(COc3ccccc3C)o2)nc1C#N	inactive: -9.87%	
CC1=C(C(=O)Nc2cccc(F)c2)C2(CCCCCC2)OC1=O	inactive: 1.97%	
COc1cccc(Cn2c(=O)n(-c3cc(C)cc(C)c3)c(=O)c3oc4ccccc4c32)c1	inactive: -7.35%	
Cc1c(Cl)cccc1-c1ccc(C(=O)Nc2ccc3oc(-c4cccnc4)nc3c2)o1		active: 13.1 µM
CCC(CC)C(=O)Nc1cccc(-c2cn3cccnc3n2)c1	inactive: -14.1%	
Cc1ccc2c(=O)c(C(=O)c3cccc(Cl)c3)cn(CC(=O)NCc3ccccc3)c2n1	inactive: -0.846%	
CCc1ccc(NC(=O)C2CCN(c3ccc(Sc4ccc(C)cc4)nn3)CC2)cc1	inactive: -10.6%	
COc1ccc(CCNC(=O)Cn2c(=O)cc(C(F)(F)F)c3c(C)nn(C)c32)c(OC)c1	inactive: -7.43%	
CCc1ccc(C2=CC(c3cccc(OC)c3OC)n3c(nc4ccccc43)N2)cc1 (stereo not drawn)	inactive: 0.133%	
Cc1ccc(N2CCN(S(=O)(=O)c3nnc(NC(=O)c4cccc(F)c4)s3)CC2)cc1	inactive: -6.05%	
O=C(Cn1cccc1C(=O)c1ccccc1)NCc1ccc(Cl)cc1	inactive: 2.63%	
CCCN1CCN(CCCNC(=O)c2cc3c(=O)[nH]c4ccccc4c3s2)CC1	inactive: -0.323%	
COc1ccc(NC(=O)CNC(=O)Cn2ccc3ccccc3c2=O)c(OC)c1	inactive: -1.77%	
Cc1ccc(CNC(=O)c2cnc(N3CCCC3)nc2C)cc1	inactive: 0.341%	
CCc1ccccc1NC(=O)c1nnn(CC(=O)Nc2c(C)cc(C)cc2C)c1N	inactive: -2.41%	
CN(C(=O)CSc1nc2ccc(NC(=O)c3ccco3)cc2s1)c1ccccc1	inactive: -7.67%	
COc1cc(CNCCSc2nnnn2C)ccc1OCc1ccccc1	inactive: -18.1%	
COc1ccc(N2CCN(C(=O)c3c(C)oc4ncn(CC(C)C)c(=O)c34)CC2)cc1	inactive: 3.08%	
CCn1cc(C(=O)N2CCN(c3ccccc3OC)CC2)c2cc(OC)c(OC)cc2c1=O	inactive: -1.46%	
CCc1ccc(NC(=O)c2ccc(CNS(=O)(=O)c3ccc4c(c3)C(C)(C)C(=O)N4C)cc2)cc1	inactive: -7.77%	

SMILES	activity change, negative = inhibition	Potency
CCC(Oc1ccccc1)C(=O)Nc1nnc(S(=O)(=O)N2CCCC2)s1 (stereo not drawn)	inactive: -22.2%	
CCc1ccc(OCC(=O)Nc2c(C(=O)c3ccc(Br)cc3)oc3ccccc23)cc1	inactive: 9.75%	
CCOc1cccc2sc(=NC(=O)c3ccc(S(=O)(=O)N4CCOCC4)cc3)n(C)c12	inactive: -17%	
CCOC(=O)c1cnc2c(OC)cccc2c1N1CCN(c2ccccc2F)CC1	inactive: 5.39%	
CCOC(=O)c1c(NC(=O)C(C)Oc2ccccc2F)sc(C(C)=O)c1C (stereo not drawn)	inactive: -9.91%	
COc1ccc(CCNC(=O)CCCCn2c(=O)c3ccccc3n(Cc3cccc(C)c3)c2=O)cc1OC	inactive: -12.9%	
COc1ccc(C(=O)Nc2ccc3c(c2)CCCN3S(=O)(=O)c2ccc(C)cc2)cc1	inactive: 12.6%	
COc1ccc(NC(=O)c2oc3ccccc3c2NC(=O)c2cc(=O)c3ccccc3o2)cc1	inactive: 3.79%	
CCCCN(CCCC)CCn1cnc2c([nH]c3ccc(OC)cc32)c1=O	inactive: -2.74%	
COc1ccc(CNC(=O)c2ccc(-c3nc(CSc4ccccc4)c(C)o3)cc2)cc1	inactive: -4.31%	
CCc1ccc(-c2nc(CN3CCCC(C(=O)NCc4ccccc4Cl)C3)c(C)o2)cc1 (stereo not drawn)	inactive: -15.8%	
Cc1ccc2c(c1)-c1nc(-c3ccccc3)cc(-c3ccccc3)c1CO2	inactive: 2.55%	
Cc1nn2c(=O)cc(COC(=O)c3ccccc3NC(=O)C3CCCCC3)nc2s1	inactive: 9.09%	
CCOc1ccc(N(CC)S(=O)(=O)N2CCCC(C(=O)NCc3ccccc3OCC)C2)cc1 (stereo not drawn)	inactive: -17.9%	
COc1cc(-c2cc3n(C)c(C)c(CCC(=O)NC4CCC(C)CC4)c(=O)n3n2)cc(OC)c1OC (stereo not drawn)	inactive: -9.29%	
O=C(NCCc1csc(-c2cccc(F)c2)n1)c1ccco1	inactive: 10.4%	
O=C(NC1CCCC1)c1ccc2c(c1)N(Cc1c(F)cccc1Cl)C(=O)c1ccccc1S2	inactive: 0.0427%	
Cc1nn(CC(=O)NC(C)c2ccccc2)c(=O)c2cc3occc3n12 (stereo not drawn)	inactive: -0.304%	
COc1cccc2c1Oc1ncccc1N(C(=O)CCC(=O)NCc1ccc(OC(C)C)cc1)C2	inactive: -0.278%	
CCOC(=O)C1=C(CN2CCN(c3ccc(Cl)cc3)CC2)NC(=O)NC1c1ccc(F)cc1 (stereo not drawn)	inactive: -7.3%	
NC(=O)COc1ccc(-c2noc(COc3ccc(Cl)cc3)n2)cc1	inactive: 6.37%	
O=C(CSc1nc2c([nH]c3ccccc32)c(=O)n1-c1ccccc1)Nc1ccccc1C(F)(F)F	inactive: -4.54%	
NS(=O)(=O)c1ccc(CCNC(=O)Cn2c(=O)c3cccn3c3ccc(F)cc32)cc1	inactive: -8.88%	
COc1ccc2c(c1)CC(C(=O)Nc1c(C)cc(C)cc1C)CO2 (stereo not drawn)	inactive: -2.39%	
